Assay results published in PubChem BioAssay AID1345083 (National Center for Advancing Translational Sciences (NCATS), 2018).
Where “and” joins values, the source holds several entries; their conditions need not be identical. Identical values can stand only once. Screen size: about 94,000 compounds; about 6,200 (6.6%) were called active. Inconclusive means that the source gave no clear call. Such entries were picked first, then a sample of the others. Calls come from the whole dose curve; as a rule, active = well fitted inhibition curve with a large enough effect; inconclusive = small, poorly fitted or top-dose-only effect; inactive = flat fitted curve, though single readings scatter. A potency beside an inconclusive call is a rough fit, not a confirmed value. More than one record can exist for a structure, and the calls need not agree.

Assay: Cytotoxic Profiling in HEK 293 Cell Line of Diverse Libraries Using Quantitative High-Throughput Screening; note: nearly all actives have a fitted effect of over 60% in size
Conditions: HEK 293 viability, ATP luminescence (CellTiter-Glo), 48-72 h; activity change, negative = cytotoxicity: at 115 µM (top of the series) unless noted; series mostly up to 115 µM
Outline: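 ATP-coupled CellTiter-Glo luminescence served as viability read-out, recorded 10 min after reagent addition at room temperature. HEK 293 cells, 250 cells/well, had been incubated with pintool-transferred compound for 48 or 72 hr at 37 degree Celsius.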
% is set by controls: 0 for no effect and ±100 for the full control effect; potency is the fitted concentration of half-maximal effect; tags give direction and shape of the fitted curve.

| SMILES | Potency | activity change, negative = cytotoxicity | outcome |
| --- | --- | --- | --- |
| COC1C(=O)N(c2cccc(F)c2)C12CCN(S(=O)(=O)c1c(C)nn(C)c1C)CC2 (stereo not given) | inconclusive: 89.1 µM [inhibitor, single point] | – | – |
| Cc1ccc([S+](=O)([O-])N2CCN(c3nccc(Nc4ccccc4F)n3)CC2)cc1 | active: 31.6 µM | – | – |
| CS(=O)(=O)N[C@H]1CCN2C(=O)c3cc(-c4cccc(C(F)(F)F)c4)ccc3NC(=O)[C@@H]2C1 | – | inactive: 4.78% | – |
| O=C1CC(c2noc(-c3cccc(F)c3)n2)CN1c1ccc(Cl)cc1 (stereo not given) | inconclusive: 79.4 µM [inhibitor, partial curve, poor fit] | – | – |
| O=C1N[C@H](CC(=O)N2CCN(Cc3ccccc3)CC2)C(=O)Nc2ccccc21 | – | inactive: 7.44% | – |
| O=C(NCc1ccccc1)c1ccc2nnc(-c3cc[nH]c3)n2c1 | inconclusive: 89.1 µM [inhibitor, partial curve, poor fit] | – | – |
| CNC(=O)C1(N2CCC[C@H]2C(=O)NCCOC)CCOCC1 | – | inactive: 0.472% [at 172 µM] | – |
| CN(C)c1ccc(C(=O)N2CCc3cn(C)c4cccc(c34)C2)cc1 | inconclusive: 25.1 µM [inhibitor, partial curve, poor fit] | – | – |
| O[C@H]1CC[C@@H](Cc2cc(COc3ccccc3)on2)O[C@@H]1CNCc1cccnc1 | – | inactive: -7.35% [at 172 µM] | – |
| O=C(c1ccc(Cl)nc1)N1CCN(Cc2ccccc2-c2cccnc2)CC1 | inconclusive: 50.1 µM [inhibitor, partial curve, poor fit] | – | – |
| O=c1cc(-c2cccnc2)oc2c(-c3ccc(O)c(F)c3)nccc12 | inconclusive: 126 µM [inhibitor, single point] | – | – |
| O=C(NCc1ccccc1F)c1ccc2c(c1)CN(Cc1cccnc1Cl)CCO2 | inconclusive: 50.1 µM [inhibitor, partial curve, poor fit] | – | – |
| Cc1ccsc1C(=O)NCCC1CCN(C(=O)Nc2cc(F)cc(F)c2)CC1 | inconclusive: 89.1 µM [inhibitor, single point] | – | – |
| O=C([C@@H]1C[C@H](F)CN1S(=O)(=O)c1ccc(F)c(Cl)c1)N1CCCCC1 | – | inactive: -20% | – |
| O=[S+]([O-])(NC1CCN(c2nccc(Nc3ccccc3Cl)n2)CC1)c1cccs1 | inconclusive: 56.2 µM [inhibitor, partial curve, poor fit] | – | – |
| O=C(NCc1cccs1)c1ccc(CN2C(=O)NC3(CCS(=O)(=O)CC3)C2=O)cc1 | – | inactive: 0.75% | – |
| COCc1nncn1C1CCN(S(=O)(=O)c2ccccc2Cl)CC1 | – | inactive: 9.63% | – |
| O=C1COc2ccc(NS(=O)(=O)c3cccc(Cl)c3)cc2CN1C1CCCc2ccccc21 (stereo not given) | inconclusive: 35.5 µM [inhibitor, partial curve] | – | – |
| O=C(N[C@@H]1CN(C(=O)c2cccc3[nH]ccc23)CC[C@@H]1CO)C1CC1 | – | – | inactive |
| Cc1ccc(OCCC2CCN(C(=O)Cc3c[nH]c4ccccc34)C2)cc1 (stereo not given) | active: 35.5 µM | – | – |
| CN(C)c1ccc(CN2CCn3c(nn(-c4ccc(F)cc4F)c3=O)C2)cc1 | – | inactive: -22.8% | – |
| C=CCNC(=O)CCc1c(C)nn(-c2ccccc2C)c1Oc1cccc(F)c1 | – | inactive: -26.4% | – |
| OCC1(CC2CC2)CCCN(Cc2noc(C3CC3)n2)C1 (stereo not given) | – | inactive: -15.2% | – |
| CC(=O)Nc1ccc(-c2nnc3n2CCN(C(=O)c2ccccc2)C3)cc1 | – | inactive: -18.1% | – |

| SMILES | Potency | activity change, negative = cytotoxicity | outcome |
| --- | --- | --- | --- |
| NC(=O)c1nc(CNC(=O)CC(c2ccccc2)c2cccc(Cl)c2)no1 (stereo not given) | inconclusive: 89.1 µM [inhibitor, single point] | – | – |
| CCN1C(=O)CCc2cc(NC(=O)c3ccc(C(C)C)cc3)ccc21 | inconclusive: 20 µM [inhibitor, full curve, poor fit] | – | – |
| COCc1nc(-c2ccc(OC3CN(C(=O)c4cccc(OC)c4)C3)cc2)no1 | inconclusive: 70.8 µM [inhibitor, partial curve, poor fit] | – | – |
| O=C1Nc2ccc(-c3ccc(Cl)cc3)cc2C(=O)N2CCN(C(=O)NC3CCCCC3)C[C@H]12 | inconclusive: 89.1 µM [inhibitor, single point] | – | – |
| O=C(c1cn(CCc2ccccc2)nn1)N1CCC(OCc2ccccn2)CC1 | – | inactive: -12% | – |
| Cc1ccc(C(=O)NCc2cccnc2Oc2ccccc2F)c(=O)n1C | inconclusive: 22.4 µM [inhibitor, partial curve] | – | – |
| O=C(N1CCC2(CC1)CC(N(Cc1ccccc1)C1CC1)CCO2)C1(c2ccccc2)CC1 (stereo not given) | active: 39.8 µM | – | – |
| O=C(NCCCc1ncc[nH]1)c1ccc(OC2CCN(C(=O)C3CC3)CC2)cc1 | inconclusive: 89.1 µM [inhibitor, single point] | – | – |
| COCCN1Cc2nc(Nc3ccc(C(F)(F)F)cc3)ccc2OCC1=O | inconclusive: 50.1 µM [inhibitor, partial curve, poor fit] | – | – |
| Cc1ccccc1C(=O)NC1CCCN(c2ccc3nnc(C)n3n2)C1 (stereo not given) | – | inactive: -13.8% [at 172 µM] | – |
| COc1ccccc1-n1c(=O)c(C(=O)N2CCN(C(=O)c3ccccc3)CC2)nc2cccnc21 | – | inactive: -1.28% | – |
| COc1ccc(Nc2ccnc(N3CCC(N[S+](=O)([O-])c4c(C)noc4C)CC3)n2)cc1 | active: 44.7 µM | – | – |
| OCc1ccc(CN2C[C@H](O)C[C@H]2c2nc(-c3ccc(F)cc3)no2)o1 | – | inactive: 1.23% [at 172 µM] | – |
| O=C(c1ccc(Cl)nc1)N1CCCC1C(=O)N1CCCC1c1nc2ccncc2[nH]1 (stereo not given) | – | inactive: -2.04% | – |
| Cc1ccc(-c2ccccc2CN2CCC(C(=O)NCc3ccc(Cl)cc3)CC2)cc1Cl | inconclusive: 44.7 µM [inhibitor, partial curve, poor fit] | – | – |
| O=C(c1ccccc1)N1CCC2(CC1)NCCc1c2[nH]c2ccccc12 | inconclusive: 50.1 µM [inhibitor, partial curve, poor fit] | – | – |
| CCN(CC)C(=O)c1cccc(-c2ccc(OCCn3ccnc3)cc2)c1 | active: 44.7 µM | – | – |
| CN(C)C(=O)[C@@H]1CCCN1c1nccc(Nc2ccccc2Cl)n1 | inconclusive: 112 µM [inhibitor, partial curve, poor fit] | – | – |
| Cc1ccsc1CN1CCC(Oc2cc(Cl)ccc2C(=O)N2CCCCC2)CC1 | active: 44.7 µM | – | – |
| c1cnc2nc(C3CCNC3)[nH]c2c1 (stereo not given) | inactive | – | – |
| C#CCNC(=O)c1cc(-c2ccccc2OC)nc2c1cnn2C | – | inactive: -18.1% | – |
| CCNC(=O)N[C@H]1C[C@@H](Cc2cc(CN3CCN(c4ccccc4)CC3)on2)C1(C)C | inconclusive: 63.1 µM [inhibitor, full curve] | – | – |
| CCCn1cc(-c2ccncc2)cc1C(=O)NCc1ccc(OC)cc1 | inconclusive: 56.2 µM [inhibitor, partial curve, poor fit] | – | – |
| CN(C)C1CCN(C(=O)C2(N(C)CCc3ccccc3)Cc3ccccc3C2)C1 (stereo not given) | inconclusive: 25.1 µM [inhibitor, full curve, poor fit] | – | – |

| SMILES | Potency | activity change, negative = cytotoxicity | outcome |
| --- | --- | --- | --- |
| NC(=O)c1ccc(CC2CCN(C(=O)C3CCC3)CC2)cc1 | inconclusive: 35.5 µM [inhibitor, single point] | – | – |
| COc1cccc(CN2C[C@@H](CO)[C@H](c3ccccn3)C2)c1OC | inconclusive: 28.2 µM [inhibitor, full curve] | – | – |
| COC1CCCN(c2cc(-c3ccc(Cl)cc3)nc3c(C)noc23)C1 (stereo not given) | active: 56.2 µM | – | – |
| CC(C)Cc1cc(CNC(=O)[C@H]2CNC[C@H](C(=O)N3CCCC3)C2)no1 | – | inactive: 2.2% | – |
| O=C(NCc1ccccc1)N1CCC2(CC1)CC(N(C(=O)c1ccccc1)C1CC1)CCO2 (stereo not given) | inconclusive: 56.2 µM [inhibitor, partial curve, poor fit] | – | – |
| Cc1ccc(-c2cn3cc(C(=O)NCc4ccccc4)nc3s2)cc1 | inconclusive: 89.1 µM [inhibitor, single point] | – | – |
| O=C(c1cccnc1)N1CCC2(CC1)N=C(c1ccc(Cl)cc1)NO2 | – | inactive: -28% | – |
| Cc1ccc2nc(C3CCCN(CC4CCCC4)C3)[nH]c(=O)c2c1 (stereo not given) | inactive and active: 70.8 µM | – | – |
| COc1ccc(C(=O)N2CCc3ccc(C(=O)NCc4ccccc4OC)cc32)cc1 | inconclusive: 39.8 µM [inhibitor, partial curve, poor fit] | – | – |
| O=C(c1ccccc1)N1CCC(c2nn(-c3ccccn3)c(=O)[nH]2)CC1 | – | – | inactive |
| COc1ccc(C(=O)N2CCC3(CC2)N=C(c2cccc(Br)c2)NO3)cc1 | inconclusive: 50.1 µM [inhibitor, partial curve, poor fit] | – | – |
| CNC(=O)CCn1ncc2cc(OC3CCc4cccc(-c5ccc(O)c(F)c5)c43)ccc21 (stereo not given) | inconclusive: 56.2 µM [inhibitor, partial curve, poor fit] | – | – |
| CC(C)(C)c1coc([C@@H]2COCCN2Cc2cccc(C#N)c2)n1 | inconclusive: 126 µM [inhibitor, single point] | – | – |
| Cc1cc(=O)n(CC(=O)Nc2ccc(C(F)(F)F)cc2)c(N2CCc3ccccc3C2)n1 | inconclusive: 50.1 µM [inhibitor, partial curve, poor fit] | – | – |
| COc1ccccc1OCc1nnc(C(=O)N2CCC[C@@H]2C(c2ccccc2)c2ccccc2)n1-c1ccccc1 | inconclusive: 25.1 µM [inhibitor, full curve] | – | – |
| O=c1n(CCn2cccc2)nc(C2CCCNC2)n1-c1ccccc1 (stereo not given) | – | inactive: -7.61% | – |
| CCCCN1CCc2[nH]cnc2C1c1cc(C)ccc1F (stereo not given) | – | inactive: -27% | – |
| Cc1ccc(C(=O)N2CCCCCCNC(=O)[C@@H]3CCCC[C@@H]32)c(=O)[nH]1 | – | inactive: -5.69% | – |
| Cc1cccc(CNC(=O)COc2ccc(NC(=O)C3CC3)cn2)c1 | – | inactive: 2.7% | – |
| O=C(NC1CCCCCC1)C1CCN(C(=O)c2ccc(-c3cccs3)cc2)CC1 | inconclusive: 79.4 µM [inhibitor, partial curve, poor fit] | – | – |
| COCc1cn(C[C@H]2C[C@@H](NCc3nccs3)[C@H](O)[C@@H]2O)nn1 | – | – | inactive |
| CCOC(=O)c1[nH]ncc1C1CC(=O)Nc2n[nH]c(-c3ccccc3)c21 (stereo not given) | – | inactive: -17.5% | – |
